# Results: the supplement of paper PMC8728848
# The list shows a part of the results.
# B1: Epa1-NP-mutant-Y228W (Candida glabrata), Q6VBJ0 (protein)
# chain: MILNPALFLNKCVCIYTTLILLLLTNGGYATSSNDISLASKDPTTFPLGCSPDITTPKKGLSMELYSYDFRKKGSYPCWDAAYLDPNYPRTGYKSHRLLAKVDGVTGNINFYYHATKGCTPQLGHLPASYNYPKPLTMTNFTMLLYGYFRPKVTGFHTFTISADDLLFVNFGAGNAFDCCRRDSSADHFGNYQAYAIWGSKTAKDELTVHLDAGVYYPIRLFYNNREWDGALSFTFKTESNENTVSDFSEYFFSLDDTEEGCPGLISYDSSCASVKTSKIIGIDYHTETPNENLVPITKTIYHLGIPCTGTTTTPLCGSGFYDPLANKCVTINTSSTSSVTKTTSHTTSKEVSFHSSISSQKTLIPKSIPSPYGPIKSQSIPTEMETSSEISSSEYAFSDVISTPSHSPYTKKHSSLNSSSYTSTVIHSLTSYSISQGIFSTSLSEQNITSKSSTDKFSTATSMSNNITQSSIIISQFSTNNENYTTTSMHTSSDKISTETLNNSISTTTSILFSNSSTILKNNTTIISSDKDTHYHPVNPTIVCSTNKTEIICASITQPSISNSNNHWSSSVLKFNSTTVRSTLPSSAGSNETSINVPFSSSTESNTSTSSTSTSNSKMVRSTLPSSAGSNETSISVPFSSSTESNTSTSSTSTSNSKMVRSTLPSSAGSNETSINVPFSSSTESNTSTSSTSTSNSKTVRSTPFSSAGIIMTSLSQRNNKSASSYASSNSKCYNTADSCRKVHSTPSYLLTSSYTSEGVDYDCSLVSTKLKINDTNCVNNKHTTKSCLKTSVTTTIPTLEIKTARKSSSNTIGLHSYPTSSPNKSISSAPIIGYISSFKTIKTASPSYQTSDLTTITTITSLNNPGSTAVENTHESNDKSRKTSSNDISSKHSVIKETKDAVESSNKSHQTNTLKCSSIIIASSSHNSYESLGGTTLTLTLSKVYSPQNNDTLPFLEISEVNPSRTVLPESSKMMQYLTSTEERNKTARNTIATNIVSISTFHFEGEGNAIRMGYTQLLLMLIGIIVMNIGT
# Experiments:
# Experiment in all cases: glycan array binding signal (z-score within array); higher = stronger binding
# Conditions in all cases: glycan notation: IUPAC condensed, linker removed; mutation: Y228W
# [1] = molecular target: GlcNAc(b1-3)Gal(b1-4)GlcNAc(b1-3)Gal(b1-4)GlcNAc(b1-3)Gal(b1-4)GlcNAc(b1-3)Gal(b1-4)GlcNAc(b1-2)[GlcNAc(b1-3)Gal(b1-4)GlcNAc(b1-3)Gal(b1-4)GlcNAc(b1-3)Gal(b1-4)GlcNAc(b1-3)Gal(b1-4)GlcNAc(b1-6)]Man(a1-6)[GlcNAc(b1-3)Gal(b1-4)GlcNAc(b1-3)Gal(b1-4)GlcNAc(b1-3)Gal(b1-4)GlcNAc(b1-3)Gal(b1-4)GlcNAc(b1-2)Man(a1-3)]Man(b1-4)GlcNAc(b1-4)[Fuc(a1-6)]GlcNAc
# Method in brief: (§1)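 The binding signal is a Z-score computed within each array and averaged over linkers. Arrays of the same protein sequence at different concentrations or buffers were also averaged together. Data originate from 3228 arrays in the Consortium for Functional Glycomics database, kept only where the protein sequence was available.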
# [2] = molecular target: GlcNAc(b1-3)Gal(b1-4)GlcNAc(b1-3)Gal(b1-4)GlcNAc(b1-3)GalNAc
# Method in brief: as §1
# [3] = molecular target: GlcNAc(b1-3)Gal(b1-4)GlcNAc(b1-3)GalNAc
# Method in brief: as §1
# [4] = molecular target: GlcNAc(b1-3)Gal(b1-4)GlcNAc(b1-3)[GlcNAc(b1-3)Gal(b1-4)GlcNAc(b1-3)]GalNAc
# Method in brief: as §1
# [5] = molecular target: GlcNAc(b1-3)Gal(b1-4)GlcNAc(b1-6)[Gal(b1-3)]GalNAc
# Method in brief: as §1
# [6] = molecular target: GlcNAc(b1-3)Gal(b1-4)GlcNAc(b1-6)[GlcNAc(b1-3)Gal(b1-3)]GalNAc
# Method in brief: as §1
# [7] = molecular target: GlcNAc(b1-3)Gal(b1-4)GlcNAc(b1-6)[GlcNAc(b1-3)]Gal(b1-4)GlcNAc
# Method in brief: as §1
# GlcNAc(b1-3)GalNAc = molecular target: GlcNAc(b1-3)GalNAc
# Method in brief: as §1
# GlcNAc(b1-3)Man = molecular target: GlcNAc(b1-3)Man
# Method in brief: as §1
# [8] = molecular target: GlcNAc(b1-3)[GlcNAc(b1-4)][GlcNAc(b1-6)]GlcNAc
# Method in brief: as §1
# [9] = molecular target: GlcNAc(b1-3)[GlcNAc(b1-6)]Gal(b1-4)GlcNAc
# Method in brief: as §1
# [10] = molecular target: GlcNAc(b1-3)[GlcNAc(b1-6)]GalNAc
# Method in brief: as §1
# [11] = molecular target: GlcNAc(b1-4)Gal(b1-4)GlcNAc
# Method in brief: as §1
# GlcNAc(b1-4)GlcNAc = molecular target: GlcNAc(b1-4)GlcNAc
# Method in brief: as §1
# [12] = molecular target: GlcNAc(b1-4)GlcNAc(b1-4)GlcNAc
# Method in brief: as §1
# [13] = molecular target: GlcNAc(b1-4)GlcNAc(b1-4)GlcNAc(b1-4)GlcNAc(b1-4)GlcNAc
# Method in brief: as §1
# [14] = molecular target: GlcNAc(b1-4)GlcNAc(b1-4)GlcNAc(b1-4)GlcNAc(b1-4)GlcNAc(b1-4)GlcNAc
# Method in brief: as §1
# [15] = molecular target: GlcNAc(b1-4)[GlcNAc(b1-6)]GalNAc
# Method in brief: as §1
# [16] = molecular target: GlcNAc(b1-6)Gal(b1-4)GlcNAc
# Method in brief: as §1
# GlcNAc(b1-6)GalNAc = molecular target: GlcNAc(b1-6)GalNAc
# Method in brief: as §1
# [17] = molecular target: GlcNAc6S(b1-3)Gal(b1-4)GlcNAc
# Method in brief: as §1
# Kdn(a2-3)Gal(b1-3)GalNAc = molecular target: Kdn(a2-3)Gal(b1-3)GalNAc
# Method in brief: as §1
# Kdn(a2-3)Gal(b1-3)GlcNAc = molecular target: Kdn(a2-3)Gal(b1-3)GlcNAc
# Method in brief: as §1
# Kdn(a2-3)Gal(b1-4)Glc = molecular target: Kdn(a2-3)Gal(b1-4)Glc
# Method in brief: as §1
# Kdn(a2-3)Gal(b1-4)GlcNAc = molecular target: Kdn(a2-3)Gal(b1-4)GlcNAc
# Method in brief: as §1
# [18] = molecular target: Kdn(a2-3)Gal(b1-4)[Fuc(a1-3)]GlcNAc
# Method in brief: as §1
# Kdn(a2-6)Gal(b1-4)GlcNAc = molecular target: Kdn(a2-6)Gal(b1-4)GlcNAc
# Method in brief: as §1
# [19] = molecular target: Man(a1-2)Man(a1-2)Man(a1-3)Man
# Method in brief: as §1
# [20] = molecular target: Man(a1-2)Man(a1-2)Man(a1-6)[Man(a1-3)]Man
# Method in brief: as §1
# Man(a1-2)Man(a1-3)Man = molecular target: Man(a1-2)Man(a1-3)Man
# Method in brief: as §1
binder,measurement,setting,value
B1,glycan array binding signal (z-score),[1],0.383
same,glycan array binding signal (z-score),[2],-0.068
same,glycan array binding signal (z-score),[3],-0.124
same,glycan array binding signal (z-score),[4],-0.271
same,glycan array binding signal (z-score),[5],-0.16
same,glycan array binding signal (z-score),[6],0.098
same,glycan array binding signal (z-score),[7],-0.521
same,glycan array binding signal (z-score),GlcNAc(b1-3)GalNAc,-0.098
same,glycan array binding signal (z-score),GlcNAc(b1-3)Man,-0.193
same,glycan array binding signal (z-score),[8],-0.403
same,glycan array binding signal (z-score),[9],-0.07
same,glycan array binding signal (z-score),[10],-0.341
same,glycan array binding signal (z-score),[11],-0.126
same,glycan array binding signal (z-score),GlcNAc(b1-4)GlcNAc,-0.198
same,glycan array binding signal (z-score),[12],-0.204
same,glycan array binding signal (z-score),[13],-0.175
same,glycan array binding signal (z-score),[14],-0.038
same,glycan array binding signal (z-score),[15],-0.409
same,glycan array binding signal (z-score),[16],0.336
same,glycan array binding signal (z-score),GlcNAc(b1-6)GalNAc,-0.054
same,glycan array binding signal (z-score),[17],0.839
same,glycan array binding signal (z-score),Kdn(a2-3)Gal(b1-3)GalNAc,-0.058
same,glycan array binding signal (z-score),Kdn(a2-3)Gal(b1-3)GlcNAc,-0.107
same,glycan array binding signal (z-score),Kdn(a2-3)Gal(b1-4)Glc,-0.277
same,glycan array binding signal (z-score),Kdn(a2-3)Gal(b1-4)GlcNAc,-0.087
same,glycan array binding signal (z-score),[18],0.171
same,glycan array binding signal (z-score),Kdn(a2-6)Gal(b1-4)GlcNAc,0.206
same,glycan array binding signal (z-score),[19],-0.209
same,glycan array binding signal (z-score),[20],-0.341
same,glycan array binding signal (z-score),Man(a1-2)Man(a1-3)Man,-0.297
